# Data from the supplement of paper PMC7826260.
# The list shows a part of the results. The data describe in vitro nicking of single-stranded DNA by Rep domains (3 µM enzyme, 1 h, 37 °C); shown is the middle of each 90-letter strand. Numbers give uncut DNA relative to the enzyme-free pool, as log2; uncut sequences lie near 0, cut ones below; no hit call is given. Shares of all reads are compared; values above 0 arise when much of the pool is cut.
# Assays:
# Experiment in all cases: uncleaved DNA left, log2 of reads against the no-enzyme library (log2 ratio); higher = less cleavage (more negative = more Rep cleavage of the k-mer); sequences stand for … in CTCGTCCG…ACCGGAGA
# [1] = system: T1, Rep nickase domain of Muscovy duck circovirus
# T1 sequence (residues 1-111, tag not shown): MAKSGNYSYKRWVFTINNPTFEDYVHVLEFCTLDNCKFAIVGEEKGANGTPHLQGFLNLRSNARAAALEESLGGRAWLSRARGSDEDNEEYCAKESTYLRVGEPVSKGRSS
# Experimental: (§1)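 A pool of 90-nt single-stranded DNAs with seven random bases just before the constant AC of the nick site (name = the seven bases) was cut by 3 µM recombinant His6-SUMO-tagged Rep nickase domain (300 nM DNA, 50 mM HEPES pH 8.0, 50 mM NaCl, 1 mM MnCl2, 1 h, 37 °C, three replicates). Uncut DNA was amplified and sequenced.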
# [2] = system: T2, Rep nickase domain of banana bunchy top virus
# T2 sequence (residues 1-94, tag not shown): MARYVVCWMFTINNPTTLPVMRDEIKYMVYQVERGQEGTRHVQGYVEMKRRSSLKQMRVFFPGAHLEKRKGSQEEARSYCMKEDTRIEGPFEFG
# Experimental: as §1
# [3] = system: T3, Rep nickase domain of cabbage leaf curl virus
# T3 sequence (residues 1-116, tag not shown): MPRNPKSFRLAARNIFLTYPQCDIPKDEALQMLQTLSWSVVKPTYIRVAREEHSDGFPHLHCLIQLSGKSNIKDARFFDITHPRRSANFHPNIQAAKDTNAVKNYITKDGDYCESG
# Experimental: as §1
# [4] = system: T4, Rep nickase domain of chickpea chlorotic dwarf virus
# T4 sequence (residues 1-124, tag not shown): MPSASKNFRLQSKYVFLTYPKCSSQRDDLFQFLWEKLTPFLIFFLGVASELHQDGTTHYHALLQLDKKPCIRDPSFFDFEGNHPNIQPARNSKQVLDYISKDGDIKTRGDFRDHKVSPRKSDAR
# Experimental: as §1
# [5] = system: T5, Rep nickase domain of faba bean necrotic yellows virus
# T5 sequence (residues 1-98, tag not shown): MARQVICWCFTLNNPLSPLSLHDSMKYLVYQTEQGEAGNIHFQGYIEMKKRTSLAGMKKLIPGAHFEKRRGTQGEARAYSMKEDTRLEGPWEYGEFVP
# Experimental: as §1
# [6] = system: T6, Rep nickase domain of maize striate mosaic virus
# T6 sequence (residues 1-117, tag not shown): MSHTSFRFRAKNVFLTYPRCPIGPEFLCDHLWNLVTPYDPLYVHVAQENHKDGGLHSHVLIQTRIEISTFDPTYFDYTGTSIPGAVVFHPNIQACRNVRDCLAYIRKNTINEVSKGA
# Experimental: as §1
# [7] = system: T7, Rep nickase domain of porcine circovirus 2
# T7 sequence (residues 2-116, tag not shown): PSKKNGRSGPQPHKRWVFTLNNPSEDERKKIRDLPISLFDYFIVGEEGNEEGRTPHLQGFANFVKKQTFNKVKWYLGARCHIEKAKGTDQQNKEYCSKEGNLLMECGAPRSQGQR
# Experimental: as §1
# [8] = system: T8, Rep nickase domain of tomato golden mosaic virus
# T8 sequence (residues 1-124, tag not shown): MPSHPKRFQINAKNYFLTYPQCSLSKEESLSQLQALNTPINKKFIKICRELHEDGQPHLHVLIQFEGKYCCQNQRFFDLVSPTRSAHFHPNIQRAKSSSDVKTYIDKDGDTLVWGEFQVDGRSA
# Experimental: as §1
# [9] = system: T9, Rep nickase domain of tomato yellow leaf curl virus
# T9 sequence (residues 1-136, tag not shown): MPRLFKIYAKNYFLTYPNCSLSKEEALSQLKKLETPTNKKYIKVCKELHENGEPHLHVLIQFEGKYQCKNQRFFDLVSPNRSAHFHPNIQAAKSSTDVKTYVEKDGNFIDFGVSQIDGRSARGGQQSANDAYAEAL
# Experimental: as §1
# [10] = system: T10, Rep nickase domain of wheat dwarf virus
# T10 sequence (residues 1-137, tag not shown): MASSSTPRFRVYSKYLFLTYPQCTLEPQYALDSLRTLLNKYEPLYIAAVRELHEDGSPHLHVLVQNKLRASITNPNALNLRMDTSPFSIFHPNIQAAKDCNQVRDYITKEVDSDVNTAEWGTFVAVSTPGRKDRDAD
# Experimental: as §1
Sequence,uncleaved DNA left (log2) [1],uncleaved DNA left (log2) [2],uncleaved DNA left (log2) [3],uncleaved DNA left (log2) [4],uncleaved DNA left (log2) [5],uncleaved DNA left (log2) [6],uncleaved DNA left (log2) [7],uncleaved DNA left (log2) [8],uncleaved DNA left (log2) [9],uncleaved DNA left (log2) [10]
AGGGGAC,-0.0629,-0.00955,0.702,1.52,-0.0718,2.1,0.205,0.0661,-0.042,0.113
CCGTCAG,0.0294,0.0427,-0.504,-0.309,0.0817,-0.819,0.18,0.0509,0.00387,-0.159
GCTCAAG,0.0246,-0.0738,-0.546,-0.286,-0.0594,-0.985,0.224,0.0511,0.0713,-0.0203
TCATCGC,-0.114,-0.159,-0.695,-0.88,-0.112,-1.16,0.052,-0.208,-0.0556,-0.194
CAGAAAT,-0.00643,-0.183,0.177,-0.0356,-0.117,0.35,-2.77,0.113,-0.0222,0.222
ACTGCTA,-0.134,-0.16,-0.343,-0.357,-0.0101,-0.633,-0.109,-0.0512,0.0113,-0.107
AGGTTTT,-1.57,-0.104,0.139,-0.922,-0.218,0.763,-3.45,-0.0271,0.0105,0.0147
CCACGCT,-0.0811,-0.0898,-0.722,-1.95,-0.204,-0.829,-0.0793,-0.158,-0.0846,-0.318
CAAGTGG,0.128,-0.042,-0.0557,0.373,0.0616,-0.478,0.119,0.0457,-0.0433,-0.0464
GTCAAGA,0.0281,0.116,0.348,0.922,0.0713,1.47,0.126,0.178,0.15,0.124
GAGTGTA,-0.0901,-0.282,0.202,-0.0474,-0.268,0.941,-2.34,0.0326,0.0239,0.0147
GATGATA,0.148,0.0949,0.321,-0.21,0.0916,1.25,0.0767,0.173,0.0865,0.133
TAGGTGT,0.000268,-0.0448,0.08,-0.0207,-0.00937,0.501,-0.986,0.0492,-0.109,-0.0266
ATACGTC,0.0969,0.00203,-0.0979,-0.823,-0.0377,-0.965,-0.0144,-0.0556,-0.0689,-0.0924
GCAGTTG,-0.159,-0.12,-0.445,-0.194,-0.0351,-0.8,-0.147,0.0135,-0.0923,-0.134
